# Measurements published in publication PMC7819943, “Rice protein-binding microarrays: a tool to detect cis-acting elements near promoter regions in rice”.
# Some of the results follow.
# Target: T1, OsWOX13 (Oryza sativa, UniProt Q5QMM3 1-267)
# T1 sequence: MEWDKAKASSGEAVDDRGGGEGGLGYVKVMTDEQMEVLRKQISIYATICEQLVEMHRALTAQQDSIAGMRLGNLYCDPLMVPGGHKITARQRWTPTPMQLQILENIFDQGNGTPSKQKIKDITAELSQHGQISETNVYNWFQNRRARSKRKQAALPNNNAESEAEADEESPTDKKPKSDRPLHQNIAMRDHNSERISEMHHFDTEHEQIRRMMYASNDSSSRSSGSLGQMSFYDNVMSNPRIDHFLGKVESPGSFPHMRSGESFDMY
# Assay: protein-binding microarray (RPBM); PBS, 2% BSA, 51.3 ng/ul salmon testes DNA, 50 uM zinc acetate, 200 nM TF, 25 C, 1 h; high values mean tight binding
# Details: protein: recombinant; tags: N-terminal polyhistidine and DsRed monomer fusion (pET32a); label: CyDye5-dUTP incorporated in the synthesized complementary strand; 3' TTTTT single-stranded linker to array surface; dsDNA, one strand shown
# In short: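 Polyhistidine-tagged DsRed fusions of transcription factors, joined at the N-terminus, were expressed in E. coli BL21-CodonPlus and isolated on Ni–NTA. They were incubated at 200 nM for 1 h at 25 °C on a custom Agilent array, double-stranded and BSA-blocked, in PBS with 2% BSA, salmon testes DNA and 50 µM zinc acetate. The binding signal is per-feature fluorescence intensity (arbitrary units) read on an Axon 4000B scanner after washing.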
row,Sequence,binding signal
1,ATAAAACATAATGATCTATTAGAACATGATTATTTAAGCACGGAGTCACCTAGTGCAG,3780 fluorescence intensity (a.u.)
2,AATTACGTGATGATTTGACAATGTGATGCTACAGTAAATACGGAGTCACCTAGTGCAG,4800 fluorescence intensity (a.u.)
3,AATGTTAATTAGGAACTATTTATAATAAACATTAATAGCACGGAGTCACCTAGTGCAG,14000 fluorescence intensity (a.u.)
4,GTTGCTAATTGACAATCAGCCCCTTCCAGGGCCACTACATCGGAGTCACCTAGTGCAG,50200 fluorescence intensity (a.u.)
5,ATAAACAGCTTAGTTATCTTTACTGTTAATACGGCTCTTTCGGAGTCACCTAGTGCAG,3980 fluorescence intensity (a.u.)
6,CTTTTAGATGTGGCAATTAACTATTTGCCACTGGACCACCCGGAGTCACCTAGTGCAG,10200 fluorescence intensity (a.u.)
7,CATAATTTCCTTTCTCACCGGGCCACTCTCCACACCCGCTCGGAGTCACCTAGTGCAG,13500 fluorescence intensity (a.u.)
8,CTTAATTGTTGAACCGATCCGCAACGTACGTAACGCATTGCGGAGTCACCTAGTGCAG,19600 fluorescence intensity (a.u.)
9,TATAAATTAATTTTAATTTTCTAATAAGCCAAATAAGCCACGGAGTCACCTAGTGCAG,42500 fluorescence intensity (a.u.)
10,TATTACATCGATCATATTGATTGTCGATTAGTACACCTTACGGAGTCACCTAGTGCAG,5790 fluorescence intensity (a.u.)
11,GGTTAATATGGATTAATTACTACAACTGTTTTACTGCTTTCGGAGTCACCTAGTGCAG,16300 fluorescence intensity (a.u.)
12,TGTCAATTTGTCAAAATAACGGTAGTGTTGAGAAATTTAACGGAGTCACCTAGTGCAG,3160 fluorescence intensity (a.u.)
13,TCGACAACCAAATTTAATTTATAGTGTCATTGTCCAGGTTCGGAGTCACCTAGTGCAG,6140 fluorescence intensity (a.u.)
14,GGCATTAACAGTTTTGCAATTTATCTCGACTAATCTTGCCCGGAGTCACCTAGTGCAG,7440 fluorescence intensity (a.u.)
15,TTCAATTGTAATCCAAGATAAATTGGGATCAAAGCCTTCACGGAGTCACCTAGTGCAG,3740 fluorescence intensity (a.u.)
16,TACTTATATTACTATGATGAGCAATTAACCATGCCCCGCCCGGAGTCACCTAGTGCAG,3220 fluorescence intensity (a.u.)
17,TATATGGATTAACAGATAATTAGCAGCGGGGTTAGCAAAACGGAGTCACCTAGTGCAG,21000 fluorescence intensity (a.u.)
18,GCATTTAATTAAATCTAGAACTAATCCGGTTGATTTCGGCCGGAGTCACCTAGTGCAG,31600 fluorescence intensity (a.u.)
19,TGGTGATCGAGTTAACTAATTTCTTTGTCCTCCCTGAGACCGGAGTCACCTAGTGCAG,11700 fluorescence intensity (a.u.)
20,GCATCCCTGATTTGAACCCGTGCGTGCACGGTCGGTCTCGCGGAGTCACCTAGTGCAG,4210 fluorescence intensity (a.u.)
21,CGTCGGTGTGATTGATGGTGGTTTTGTTGTCTGATGATGACGGAGTCACCTAGTGCAG,30600 fluorescence intensity (a.u.)
22,ACTAACAGTTAGATTAAATTGATATCTCGTACCTCATATTCGGAGTCACCTAGTGCAG,27400 fluorescence intensity (a.u.)
23,AGGTAATGTAAACTAAACTTAGGTTAATTTCATCCTCAACCGGAGTCACCTAGTGCAG,6850 fluorescence intensity (a.u.)
24,CATGCATGCACAGGTGATTAGTAGTATGTAATTATGCCAGCGGAGTCACCTAGTGCAG,6080 fluorescence intensity (a.u.)
25,CCTTATAATTGCTACCTACTGGCGATAAGCAGTGAACTATCGGAGTCACCTAGTGCAG,10700 fluorescence intensity (a.u.)
26,GAGATGAATCTTTTAAGCCTAATTATGTCATGATTTGGTACGGAGTCACCTAGTGCAG,6070 fluorescence intensity (a.u.)
27,TTTTCTAATCTAATCTAATCTAATCCAATCGGCCGATTAACGGAGTCACCTAGTGCAG,11100 fluorescence intensity (a.u.)

row,Sequence,binding signal
1,AGCAGTTAACAGCTAAACATAAGATGAGAGACGATGGGTTCGGAGTCACCTAGTGCAG,8130 fluorescence intensity (a.u.)
2,TATCAATGAATTACTGACAGATTGTGTCGTAGGGACCGAACGGAGTCACCTAGTGCAG,14200 fluorescence intensity (a.u.)
3,CAAAATAAATTATCCTAATATGAAATGCGATGATTTCTAACGGAGTCACCTAGTGCAG,17300 fluorescence intensity (a.u.)
4,TTCCCAAATTGATCATCATATAATGAAATCCAAAATTTCTCGGAGTCACCTAGTGCAG,24500 fluorescence intensity (a.u.)
5,AGTAAATTATTCTTAAAAGTTTTCATATTATTCTTTTCATCGGAGTCACCTAGTGCAG,9660 fluorescence intensity (a.u.)
6,ATTAAAACTTAATCAATCACACGTTAATACCACCTCGTTTCGGAGTCACCTAGTGCAG,31000 fluorescence intensity (a.u.)
7,ATGTATTTAGATTAGGATTAGATTGTTTGTAGTGTCTACCCGGAGTCACCTAGTGCAG,22900 fluorescence intensity (a.u.)
8,CACCGGATCTGATTACCCCTCTCTCTCTCTCTCTCTCTCTCGGAGTCACCTAGTGCAG,3920 fluorescence intensity (a.u.)
9,CGTTCTGTCATTTGGGTTTTATGTTTGTTCTCTCTTGTTTCGGAGTCACCTAGTGCAG,5830 fluorescence intensity (a.u.)
10,TGCTGATTATACTACTGTGTAAACAATGGCCCTGTTTGATCGGAGTCACCTAGTGCAG,29500 fluorescence intensity (a.u.)
11,GGCTATCCAAGATTTCTGCTAATTATTTCACAGAAAATGCCGGAGTCACCTAGTGCAG,5300 fluorescence intensity (a.u.)
12,TTCGTTCTTGATTATCCATTTGTTGTTAATAATCTTCTGTCGGAGTCACCTAGTGCAG,15500 fluorescence intensity (a.u.)
13,CTCTGAGTCAGTGACAAATTGTTGAGCTAAATTGTGTCCTCGGAGTCACCTAGTGCAG,4370 fluorescence intensity (a.u.)
14,TAAAATAAATTATAGATTTTGCCTATAAACTGTGAGATGACGGAGTCACCTAGTGCAG,9780 fluorescence intensity (a.u.)
15,CTCGATTAGCTGTCAACGCTGTTTGGGCCGGCGAGCTCCACGGAGTCACCTAGTGCAG,13600 fluorescence intensity (a.u.)
16,CGTCCGGCTCCGTTGGCCAATCAATCCGATCGAGCCAAGCCGGAGTCACCTAGTGCAG,3480 fluorescence intensity (a.u.)
17,ACACAATTATGTCAAGTTCAATTCTCAAGTTTGAATTGGGCGGAGTCACCTAGTGCAG,5050 fluorescence intensity (a.u.)
18,GTGCGATGAAACAAATCAATTATCAATTATGTACTCTTTCCGGAGTCACCTAGTGCAG,14100 fluorescence intensity (a.u.)
19,GGTTGATCCAAATGTCATCTTTAATTATTGAACCCGACGTCGGAGTCACCTAGTGCAG,3160 fluorescence intensity (a.u.)
20,TTAAACTGTCATACATACATAACTTTTCAGTCACATCGTACGGAGTCACCTAGTGCAG,5020 fluorescence intensity (a.u.)
21,ATGAAGATTGAATAGATATACTATACTACACATGGGTTAACGGAGTCACCTAGTGCAG,18700 fluorescence intensity (a.u.)
22,CTTTTCTCGGACTAAATTGGCACGTGACCAGCTGAGGGAACGGAGTCACCTAGTGCAG,6480 fluorescence intensity (a.u.)
23,GAACTAAACAGGCCCTTAATTAGCTGTTGCAATCGTCCCTCGGAGTCACCTAGTGCAG,31900 fluorescence intensity (a.u.)
24,CTTTTAAATAATCAGAGTAATTAAAGGTAAGGGCGATCTGCGGAGTCACCTAGTGCAG,7540 fluorescence intensity (a.u.)
25,CCAAGATTGTATCAATATGAATTTCACGCTGTCCGATGCGCGGAGTCACCTAGTGCAG,7490 fluorescence intensity (a.u.)
26,GGCAGGTAATTGGGAGGGAATTCCTCCTTTACTTTGTCTACGGAGTCACCTAGTGCAG,18400 fluorescence intensity (a.u.)
27,TCCACCCTTCATGTGATTGGTGGTCTGCCGACTGCTTCTGCGGAGTCACCTAGTGCAG,11700 fluorescence intensity (a.u.)
